# According to the supplement of paper PMC11417369:
# The list shows a part of the results.
# Test system: PF3D7_0420300 AP2 domain 1 (GST-tagged)
# Assay: gcPBM binding intensity (ln(normalized median fluorescence intensity)); higher = stronger DNA binding
# Outline: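 The highest Masliner-normalised natural-log median intensity across replicate spots of either probe orientation is reported as binding intensity. GST-tagged P. falciparum DNA-binding domains expressed in E. coli were applied for 1 h to an Agilent 4 × 180k array of primer-extended double-stranded 36-bp intergenic genomic probes plus negative controls, and bound protein was detected with Alexa488 anti-GST antibody and scanned at 488 nm.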
row,Sequence,gcPBM binding intensity (ln)
1,TTTCCTTATAAAAATACACACAAACTTTCATTAAAA [CACACA_site5953],9.24
2,AGAAATCATCTGAATTGTACTAACAATTTTTTTTAA [XGTACX_site6191],8.96
3,CCCAATAATTAAACAACACACATATATATCTGTAAT [CACACA_site5667],9.71
4,ATAAAATGGGCAAACACACACAAAAAAAAGATATAT [CACACA_site1648],10
5,AGGGGCGAAACAAAGGTGCTTTTATAAAATATGTAA,9.11
6,AGAGAAGAAAACAAAACACACACATATATCTTAATA [CACACA_site8699],9.83
7,AACTTAAAAAAAAAAAAAAAAAAAAAAAAAAAAAAA [GTGCAC_negctrl_site34],8.64
8,CTTAAATCTACTATTTGTACATATTTTATTATTAAA [XGTACX_site6151],9.25
9,TATTATAATAAAATATGTACACACATACACACATAT [XGTACX_site2360],9.92
10,TAGATAAAATTAAAATGTACAAACCTTTTCCCTTAT [XGTACX_site1136],9.13
11,ATATATATATATATATGTACTTATTTATTTTATATA [XGTACX_site8810],9.22
12,ATATATATATATGATACATGCATATATTTTTTCTTC [TGCATGCA_site216],9.44
13,TATATATATATAAAGGTGCATATCTTTACGTATGTC [GTGCAC_site9665],9.31
14,TTTTTTTTATCAAATTGTACATATACAAAGGTGATC [XGTACX_site8054],8.86
15,ATTTTATTTTTTAATAGTACTCATTTTTTATGTGAA [XGTACX_site5494],9.15
16,TACAAATTAATATGTACACACAAATATAAATATGTA [CACACA_site7016],9.43
17,TACGTTATATACAACTGTACTTGGATAATTATTAAC [XGTACX_site5614],9.26
18,TTTTCTTTTTTGAACTGTACGCGTAAATTTAAAAAG [XGTACX_site882],8.86
19,AAGTTTTTTTCTTTTTTTCTCTCTTTTTTTTTTTTT [XGTACX_negctrl_site613],9.46
20,TTTTTTATTTATTGTTATACATCTTACTACTTATAA [GTGCAC_negctrl_site381],9.38
21,AATATATTTATATATAGTACTTTTATAATATCGTTT [XGTACX_site6658],9.21
22,AATACACATAATACATGTACTCACATTGTTATAACA [XGTACX_site4129],9.38

row,Sequence,gcPBM binding intensity (ln)
1,GATATGATTAACTTATGTTATTCTTGATGATTACGT [CACACA_negctrl_site354],9.23
2,AAGAAAAATGTGTTTTTTTTTTTTTTTTTTTTCAAT [TGCATGCA_negctrl_site404],8.77
3,TGTGAAATAAAATTTATACACACTTGCTAAATGATC [CACACA_site181],9.31
4,CTTTTTTTTTTAAATAGTACTTTCTCGTATACTCAT [XGTACX_site1842],9.17
5,TATAAATATAAATACACACACACACGCCAAAGCGTA [CACACA_site6181],10.1
6,TTTTTTTATTTTTGTTGTACTTATAATTCTGTAAAA [XGTACX_site7344],9.32
7,TTTTTTAAAAAACAAACACACACGTAGAAAAAAAAA [CACACA_site826],9.71
8,TAATTATATGGATACACACACATACATTTACATAAC [CACACA_site5744],9.91
9,TATAACTATAAAAGGAGTACTATATATATATATATA [XGTACX_site1388],9
10,ACTTATTTATTTTTAGTGCATTTAGTTTTATTTTAT,9.63
11,AGTATACACAAACACACACACACAAAAAAAAAAAAA [CACACA_site8036],9.86
12,TAAAAAGAAAAAAAGAGTACAAACAAAATAATAATT [XGTACX_site6071],9.76
13,TATTTGCAATGCAAATGTACATGAATTTTTTTAATG [XGTACX_site7474],8.95
14,TCTACAAAATTATCATGTACATATTATTATAATTAT [XGTACX_site6585],9.19
15,AATAGTACAAAAAAAAAAAAAAAAAAAAAAAAAAAA [CACACA_negctrl_site1376],8.56
16,AAATATTTTTTAATGTGTACATAGAACATATATATA [XGTACX_site3136],9.01
17,ATAATATATATATTATGTACATATAAATTTTTTTTT [XGTACX_site5826],9.09
18,TATATACCTATATATACACACAAATACATAAGCTTC [CACACA_site1369],9.75
19,TACACCTGCACGATTGCACACAAATATGTTTTGAAG [CACACA_site8656],9.58
20,AAAAAAAAAAAAAAAACACACATGTATAATATAATA [CACACA_site2209],9.38
21,TTATTATTAAAACACACACACAAAAAAAAAAAAAAA [CACACA_site1480],9.67
22,TTATATATATATATATAATATATATATATTTAAATA [XGTACX_negctrl_site453],8.67
